Reference: PMC4336329 (PLoS ONE, 2015)
The whole screen tested about 310,000 compounds, of which about 14,000 (4.5%) showed an effect of 50% or more. The effect is printed as a negative number. The list shows a part of the results.

target: human ether-à-go-go-related gene (hERG) potassium channel (human, UniProt Q12809); experiment: primary screen, population patch clamp on CHO cells stably expressing hERG
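Note: peak tail current of the secondary pulse compared with the same well before compound.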

human ether-à-go-go-related gene (hERG) potassium channel, sequence (Q12809 whole entry, looked up): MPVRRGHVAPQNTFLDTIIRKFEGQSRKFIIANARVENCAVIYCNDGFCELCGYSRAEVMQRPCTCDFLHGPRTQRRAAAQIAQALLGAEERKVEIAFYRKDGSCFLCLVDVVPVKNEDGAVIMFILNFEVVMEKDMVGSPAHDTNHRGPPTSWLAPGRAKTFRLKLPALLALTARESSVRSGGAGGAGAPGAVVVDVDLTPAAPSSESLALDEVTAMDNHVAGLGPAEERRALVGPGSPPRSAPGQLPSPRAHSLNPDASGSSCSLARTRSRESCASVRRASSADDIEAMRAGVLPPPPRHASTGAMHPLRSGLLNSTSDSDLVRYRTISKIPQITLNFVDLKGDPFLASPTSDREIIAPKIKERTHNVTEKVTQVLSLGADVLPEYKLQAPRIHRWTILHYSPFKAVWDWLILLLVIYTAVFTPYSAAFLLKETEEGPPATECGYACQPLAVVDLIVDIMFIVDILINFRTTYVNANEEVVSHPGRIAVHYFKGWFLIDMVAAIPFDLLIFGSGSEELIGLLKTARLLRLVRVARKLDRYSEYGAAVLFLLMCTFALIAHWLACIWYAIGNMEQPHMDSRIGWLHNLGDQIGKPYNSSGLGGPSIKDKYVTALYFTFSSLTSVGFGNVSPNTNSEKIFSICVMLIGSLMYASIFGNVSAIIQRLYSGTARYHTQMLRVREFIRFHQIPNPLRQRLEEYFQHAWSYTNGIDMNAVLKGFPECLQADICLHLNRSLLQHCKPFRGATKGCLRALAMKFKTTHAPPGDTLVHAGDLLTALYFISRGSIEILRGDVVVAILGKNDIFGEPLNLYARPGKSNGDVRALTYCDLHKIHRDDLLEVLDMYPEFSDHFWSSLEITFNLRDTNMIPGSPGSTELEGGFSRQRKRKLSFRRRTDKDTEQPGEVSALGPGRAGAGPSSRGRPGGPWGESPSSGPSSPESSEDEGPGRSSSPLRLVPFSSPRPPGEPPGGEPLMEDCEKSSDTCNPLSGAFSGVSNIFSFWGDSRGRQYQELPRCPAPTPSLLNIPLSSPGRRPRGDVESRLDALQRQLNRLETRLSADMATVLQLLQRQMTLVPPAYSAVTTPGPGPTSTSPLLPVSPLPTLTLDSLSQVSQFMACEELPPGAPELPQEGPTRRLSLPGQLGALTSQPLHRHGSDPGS

Compound | hERG current change (%, negative = inhibition) at 10uM [%]
CCOc1cc(/C=N/NC(=O)C(OC)c2ccccc2)ccc1O (stereo not shown) | 3.89
NC(=S)N/N=C/C=C/c1ccccc1 | 1.93
CCc1cccc(NC(=O)c2ccc(NS(=O)(=O)c3c(C)noc3C)cc2)c1 | -15.8
Cc1c(NS(=O)(=O)c2ccccc2F)c(=O)n(-c2ccccc2)n1C | 12.2
COc1c2c(cc3ccc(=O)oc13)CCO2 | 12.7
O=C(CCN1C(=O)/C(=C/c2ccccc2)SC1=S)NC1CCS(=O)(=O)C1 (stereo not shown) | 2.46
Cc1ccc(NC(=O)CCC(=O)OCC(F)(F)C(F)F)cc1 | 30.5
CC(C)[C@H](NC(=O)N1CCn2c1nc1ccccc12)C(=O)N[C@@H](Cc1ccccc1)C(=O)O | 13.1
CC(NC(=O)c1ccc(Br)o1)c1ccccc1 (stereo not shown) | 1.84
COc1ccccc1CNc1ccc2nnc(CCNC(=O)c3ccc(C)cc3)n2n1 | -0.303
Cn1c(=O)cc(SCC(=O)NCCCN2CCOCC2)c2ccccc21 | -2.51
O=C(CSCc1ccc(Br)cc1)Nc1ccc(S(=O)(=O)N2CCOCC2)cc1 | -27.2
O=C(O)Cc1nc2nc3c(c(=O)n2[nH]1)CCCC3 | 16.3
OC(CN1CCOCC1)CN1CCOCC1 | 3.54
Cc1ccc(S(=O)(=O)CCc2nnc(N)s2)cc1 | 18.2
O=C(CCSc1nc(-c2ccc3c(c2)OCO3)cc(C(F)(F)F)n1)NCc1ccco1 | 0.89
Cc1cc(C)nc(NS(=O)(=O)c2ccc(N/C=C/C(=O)c3ccc(Cl)c(Cl)c3)cc2)n1 | 25.6
Cc1cccc(OCCCC(=O)NC(C)c2ccccc2)c1 (stereo not shown) | -4.67
CC1=C(n2ccnc2)CCC1=O | 9.3
Cc1onc(-c2ccccc2)c1C(=O)N1CCC2(CC1)OCCO2 | 10.3
CON1C(=O)C(=O)N(OC)C2CCCCCC21 (stereo not shown) | 3.34
O=C(c1ccc(Cl)c(S(=O)(=O)N2CCCCC2)c1)N1CCN(c2ccccc2)CC1 | -26.5

Compound | hERG current change (%, negative = inhibition) at 10uM [%]
Cc1cc(NC(=O)c2cc(-c3ccccn3)nc3c(Cl)cccc23)no1 | 1.48
Cc1ccc(N(C(=O)C(F)(F)F)C(C(=O)NC2CCCCC2)c2ccncc2)cc1C (stereo not shown) | 15.6
CCCCNC(=O)C1CC(c2cccc(F)c2)=NO1 (stereo not shown) | -0.849
CCOC(=O)C1CCCc2c1[nH]c1ccc(Cl)cc21 (stereo not shown) | 28.9
O=C(COc1ccc2ccc(=O)oc2c1)Nc1nccs1 | -5.65
CCc1nc(SCc2nnc(-c3ccc(C)cc3)o2)c2c(C)c(C)sc2n1 | 15.7
CCOC(=O)C(C(=O)Nc1nccs1)C1CCCCC1 (stereo not shown) | -3.95
CC(C)c1nc2cc(C(=O)N(C)Cc3ccc(F)cc3)ccc2o1 | 1.04
OC(CNCc1ccco1)Cn1c2ccc(Br)cc2c2cc(Br)ccc21 (stereo not shown) | -0.0278
CC(C)[C@H](NS(=O)(=O)c1ccccc1)C(=O)OCC(=O)N1N=C(c2ccc(Cl)cc2)CC1c1ccco1 (stereo partly shown) | -1.34
Cc1cc(C(=O)OCC(=O)NCc2cccs2)c2ccccc2n1 | -0.0436
COC(=O)C1=C(c2ccc(S(C)(=O)=O)cc2)C[C@@H]2CC[C@H]1N2C(=O)NCCO | 8.14
COc1cccc(/C=N/n2c(-c3cc(C)[nH]n3)n[nH]c2=S)c1 | 15.7
CC(NC(=O)c1cc2c(=O)n(C)c3ccccc3c2n1C)c1ccc2c(c1)OCCO2 (stereo not shown) | 14.7
N#CC1=C(SCc2ccccc2)NC2=C(C(=O)CCC2)C1c1ccc2c(c1)OCO2 (stereo not shown) | -15.3
O=C(Nc1nccs1)c1csc2c1CCCC2 | 1.05
COc1ccc(NC(=O)Cn2nnc(C(=O)Nc3ccc(F)c(Cl)c3)c2N)cc1OC | 13.2
CCOC(=O)/C=C/c1ccccc1S(=O)(=O)NC(C)(C)C | -23.1
Cc1ccc(S(=O)(=O)N2CCN(C(=O)CCOc3cc(C)ccc3C)CC2)cc1 | -32.8
CCCSc1nnc(N2C(=O)CC(c3ccsc3)C3=C2CCCC3=O)s1 (stereo not shown) | -6.45
Cc1nc2ccccn2c1C(=O)NN=C1CCCC1 | -10.4
Cc1cccc(N2CCN(C(=O)CS(=O)(=O)Cc3nc(-c4ccccc4F)oc3C)CC2C)c1 (stereo not shown) | -21.4

Compound | hERG current change (%, negative = inhibition) at 10uM [%]
Cn1c(=O)[nH]c(=O)c2c1nc(OC(=O)c1ccccc1)n2CC(O)COc1ccccc1 (stereo not shown) | 23.2
COC(=O)CNC(=O)C1Cc2ccccc2CN1S(=O)(=O)c1ccc(F)cc1 (stereo not shown) | 8.38
O=C(COC(=O)C1CCC1)NCCc1ccc(Cl)cc1Cl | 16.1
CCOc1ccc(S(=O)(=O)N2CCCC(C(=O)NC3CCCC3)C2)cc1 (stereo not shown) | 4.57
COc1cccc(OCc2cc(C(=O)N(Cc3nccn3C)C(C)C)no2)c1 | 8.5
CCN(CC)c1ccc(/C=C/[N+](=O)[O-])cc1 | -10.4
O=C(c1cc2ccccc2o1)N1CCN(S(=O)(=O)c2c(F)cccc2F)CC1 | -2.27
CC(C)(C)c1nc(NCc2ccc3c(c2)OCO3)c2nnn(Cc3ccccc3Cl)c2n1.Cl | 16.4
Cc1cccc(NC(=O)CCN2CCN(C)CC2)c1.Cl | 6.48
CC1CCN(C(=O)CSc2nc3ccccc3c(=O)[nH]2)CC1 | 0.905
O=C(NC1CCCN(C2Cc3ccccc3C2)C1)c1ccc(F)cc1Cl (stereo not shown) | -71.1
NC(=O)c1nn(CC(=O)Nc2cccc(S(=O)(=O)N3CCCCCC3)c2)c(=O)c2ccccc12 | -32.9
CC(C)Sc1nc2ccccc2n1CC(=O)O | 9.86
Cc1ccc(NC(=O)c2cc([N+](=O)[O-])ccc2N2CCCC2)cc1 | -0.291
CC(C)[C@H](NC(=O)c1ccccc1F)C(=O)Nc1ccc2c(c1)OCO2 | 5.82
O=C(c1cccc(COc2ccc(Cl)cc2Cl)c1)N1CCN(c2ccccn2)CC1 | -3.19
CCCCN(C)C(=O)c1c[nH]c2ccc(S(=O)(=O)N3CCOCC3)cc2c1=O | 16.9
O=C(NCc1ccc(F)cc1)c1cc2sccc2n1Cc1ccc(F)cc1 | 20.9
C/C(=N/NC(=O)c1ccc(O)cc1)c1cccc([N+](=O)[O-])c1 | 4.27
COC(=O)c1ccc(-c2ccc(/C=N/N3C(=O)C4C5C=CC(CC5)C4C3=O)o2)cc1 (stereo not shown) | -16.1
CCCCNC(=O)C(CC)(ONc1ccccc1C(F)(F)F)c1ccccc1 (stereo not shown) | 6.19
Cn1cnnc1SCNC(=O)C(F)(F)F | 9.54

Compound | hERG current change (%, negative = inhibition) at 10uM [%]
Cc1cc(C)c(NC(=O)Cn2c(=O)n(-c3ccc(CC(=O)NCC4CCCO4)cc3)c(=O)c3ccccc32)c(C)c1 (stereo not shown) | 5.67
CC(C)[C@@H]1NC(=O)c2cc([N+](=O)[O-])cc(I)c2NCCC[C@@H](C(N)=O)NC(=O)[C@H](CO)NC1=O | -0.897
CCn1c(=N)n(CC(=O)c2cccc(OC)c2)c2ccccc21 | -16.6
CCOc1ccccc1CN1CCN(Cc2csc(C(C)=O)c2)CC1CCO (stereo not shown) | -44.5
CCN(CC)S(=O)(=O)c1cccc(C(=O)NCC2CCCO2)c1 (stereo not shown) | -1.94
CCCCNC(=O)C(=O)c1ccccc1NC(C)=O | 2.85
COc1ccc(C2CC(c3ccccc3)=NN2c2ccc(/C=N/NC(=O)c3ccncc3)cc2)cc1 (stereo not shown) | -0.834
CCCNC(=O)NC(=O)CN1C(=O)NC(C)(c2ccc(C)cc2)C1=O (stereo not shown) | -7.72
COc1cc(OC)cc(N2C(=O)CSCC2=O)c1 | 9.07
COc1cccc(OP(=O)(Nc2ccccc2)Oc2cccc(OC)c2)c1 | 5.62
CCOc1cc(C(=O)NC(C)CC)cc(OCC)c1OCC (stereo not shown) | 13.1
Cc1ccc(CNC(=O)/C=C/C(=O)O)cc1 | -15.4
O=C(NC1CCSc2ccccc21)c1ccc([N+](=O)[O-])cc1 (stereo not shown) | -40.3
CCOC(=O)C1=NNC2C(=O)N(C3CCCCC3)C(=O)C12 (stereo not shown) | 1.58
O=C(c1ccccc1)N1N=C(c2cccs2)CC1c1ccccc1O (stereo not shown) | 5.86
CCCN1CCN(C(=O)C2CCCN(c3ncnc4c3nc3n4CCCCC3)C2)CC1 (stereo not shown) | -1.04
Cc1cc(=O)oc2cc(NC(=O)COc3cccc(C(F)(F)F)c3)ccc12 | -2.39
O=C(NCC(c1cccnc1)N1CCOCC1)c1cccc(Cl)c1 (stereo not shown) | -6.87
CN=C1S/C(=C\c2ccc(N3CCCC3)c(F)c2)C(=O)N1C | -3.1
COc1ccc(N2CCN(C(=O)C(C)(C)Oc3ccc(Cl)cc3)CC2)cc1 | 1.92
CC(=O)NC(c1ccc2ccccc2c1)c1ccc2cccnc2c1O (stereo not shown) | 12.4
COc1ccccc1C(=O)Nc1c(C)n(C)n(-c2ccccc2)c1=O | 4.23
